PMC4336329 (PLoS ONE, 2015)
The campaign covered roughly 310,000 compounds. About 14,000 (4.5%) showed an effect of 50% or more. Effects have a minus sign here. The list shows a part of the results.

What follows are compounds tested against human ether-à-go-go-related gene (hERG) potassium channel (human, UniProt Q12809) (assay: primary screen, population patch clamp on CHO cells stably expressing hERG).
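Note: peak tail current of the secondary pulse compared with the same well before compound.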

Sequence of human ether-à-go-go-related gene (hERG) potassium channel (Q12809 whole entry, looked up): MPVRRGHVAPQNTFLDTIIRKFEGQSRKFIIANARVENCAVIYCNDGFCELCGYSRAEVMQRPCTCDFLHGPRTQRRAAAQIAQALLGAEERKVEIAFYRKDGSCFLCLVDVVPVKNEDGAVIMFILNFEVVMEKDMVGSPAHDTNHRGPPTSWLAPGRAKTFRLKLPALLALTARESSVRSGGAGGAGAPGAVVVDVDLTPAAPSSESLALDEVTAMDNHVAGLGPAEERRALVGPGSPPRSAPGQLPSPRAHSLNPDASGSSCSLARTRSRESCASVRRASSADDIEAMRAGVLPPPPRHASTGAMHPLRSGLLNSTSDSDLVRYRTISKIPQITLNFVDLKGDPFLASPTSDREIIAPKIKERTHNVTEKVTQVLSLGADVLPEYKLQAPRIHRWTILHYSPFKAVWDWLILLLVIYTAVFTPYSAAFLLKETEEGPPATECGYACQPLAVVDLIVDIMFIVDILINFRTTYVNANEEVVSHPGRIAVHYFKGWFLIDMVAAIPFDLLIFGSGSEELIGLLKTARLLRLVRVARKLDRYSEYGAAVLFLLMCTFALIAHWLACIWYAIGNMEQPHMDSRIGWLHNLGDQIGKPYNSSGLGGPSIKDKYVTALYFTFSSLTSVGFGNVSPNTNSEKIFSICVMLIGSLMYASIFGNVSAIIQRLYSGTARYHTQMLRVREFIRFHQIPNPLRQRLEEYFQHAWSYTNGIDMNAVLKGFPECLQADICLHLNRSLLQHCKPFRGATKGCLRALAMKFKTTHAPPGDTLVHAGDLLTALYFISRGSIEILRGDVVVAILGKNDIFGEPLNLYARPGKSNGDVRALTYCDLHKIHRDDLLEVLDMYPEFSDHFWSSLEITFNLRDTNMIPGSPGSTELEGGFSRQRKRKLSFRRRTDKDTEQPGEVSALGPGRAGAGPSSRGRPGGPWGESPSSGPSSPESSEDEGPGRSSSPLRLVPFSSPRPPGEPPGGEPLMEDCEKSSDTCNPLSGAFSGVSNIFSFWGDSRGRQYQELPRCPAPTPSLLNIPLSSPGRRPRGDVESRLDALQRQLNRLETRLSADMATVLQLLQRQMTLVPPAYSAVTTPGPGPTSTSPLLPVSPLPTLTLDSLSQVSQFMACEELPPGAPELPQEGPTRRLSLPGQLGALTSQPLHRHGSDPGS

Row | Structure (SMILES) | hERG current change (%, negative = inhibition) at 10uM
1 | CCc1ccc2[nH]cc(C(=O)OCCOC)c(=O)c2c1 | 4.42%
2 | O=C(O/N=C\c1ccc(N2CCCCC2)c([N+](=O)[O-])c1)c1cccc(C(F)(F)F)c1 | 5.92%
3 | Cc1cccnc1NC(=O)Nc1ccc(F)cc1 | -0.931%
4 | CC(Nc1ccc(Cl)c(Cl)c1)C(=O)NN (stereo not shown) | 4.26%
5 | COc1ccc(/C=N/NC(=O)c2c(-c3ccccc3)noc2C)cc1[N+](=O)[O-] | -23.8%
6 | Cl.NS(=O)(=O)c1ccc(CCNCc2cc(Br)ccc2OCc2ccccc2)cc1 | -71.8%
7 | Cc1ccn2cc(CNS(=O)(=O)c3cccs3)nc2c1 | -30.4%
8 | CCOC(=O)C1(CC2CCCCO2)CCN(S(=O)(=O)c2cccc(F)c2)CC1 (stereo not shown) | 29.8%
9 | O=C(Cc1coc2ccc3ccccc3c12)NC1CCCc2ccccc21 (stereo not shown) | 5.99%
10 | O=C(Nc1ccncc1)c1ccccc1Cl | 18%
11 | CCNC1=C(Cl)C(=O)c2ccccc2C1=O | 9.46%
12 | Cc1ccccc1NS(=O)(=O)c1cc(C(=O)Nc2ccccc2-c2ccccc2)ccc1Cl | -5.96%
13 | O=C(N/N=C/c1cccc(OCc2ccccc2)c1)c1ccc(Br)o1 | 5.73%
14 | CCS(=O)(=O)c1ccc2oc(SCC(=O)N3CCCCC3)nc2c1 | -1.98%
15 | COc1ccnc2c1c(=O)n(Cc1ccc(Cl)cc1)c(=O)n2C | 17.5%
16 | C/C(N)=C(/C#N)C(=O)COC(=O)CCCNC(=O)c1ccc(Cl)cc1 | 12.5%
17 | Cl.c1ccc(CNCc2ccco2)cc1 | 15.1%
18 | COc1ccc(/C=N/NC(=O)Cn2cc(C(F)(F)F)ccc2=O)cc1 | 0.763%
19 | O=C1NC(c2ccc3c(c2)OCO3)Oc2ccccc21 (stereo not shown) | 9.35%
20 | CCCCC(O)CN1CCC(c2ccccc2)CC1 (stereo not shown) | -56.6%

Row | Structure (SMILES) | hERG current change (%, negative = inhibition) at 10uM
21 | Cc1ccc(OCC(O)CN2C(=O)NC(C)(C)C2=O)cc1C (stereo not shown) | 14%
22 | O=C(Nc1ccccc1N1CCCC1)C1CCN(S(=O)(=O)c2ccccc2)CC1 | -6.89%
23 | O=S(=O)(Cc1cc(NCc2ccccc2)nc(-c2ccccn2)n1)c1ccccc1 | -17.1%
24 | Cc1ccccc1NS(=O)(=O)c1ccc(OCC(=O)NCc2ccco2)cc1 | -17.5%
25 | Cc1cc2ncn(C(=O)c3cc(-c4ccccc4)nc4ccccc34)c2cc1C | 7.56%
26 | COC(=O)CNc1cc(S(=O)(=O)N2CCCCC2)ccc1Oc1cccc(C)c1 | -30.7%
27 | O=C(/C=C/c1ccco1)NC1CCCC1 | 17.4%
28 | O=C1NC(=O)C2(Cc3ccccc3N3CCCC32)C(=O)N1c1cccc(Cl)c1 (stereo not shown) | -18.1%
29 | CCOc1ccc(NC(=O)CN2CCN(CC(=O)Nc3ccc(C(N)=O)cc3)CC2)cc1 | -72.6%
30 | COc1ccc(S(=O)(=O)Nc2ccccc2C(=O)N2CCOCC2)cc1Cl | -18.5%
31 | CC(C)(C)C(=O)OCc1cn(-c2ccccc2)nn1 | -1.68%
32 | CCOC(=O)CN1C(=O)N[C@@H](c2ccco2)C(C(C)=O)=C1C | 2.93%
33 | O=C(CSc1nnc(-c2ccco2)o1)N1c2ccccc2CCc2ccccc21 | -3.88%
34 | CC(C)c1ccc(NC2CCCN(C(=O)CCN3CCCO3)C2)cc1 (stereo not shown) | 13.8%
35 | CCC1CCCCN1CCNS(=O)(=O)c1ccc2c(c1)oc(=O)n2C (stereo not shown) | 7.07%
36 | Cc1cc(F)ccc1N1CCC(N2CCN(C(C)C)C(CCO)C2)CC1 (stereo not shown) | -24.7%
37 | Cc1cccc(OCC(O)CN2CC3(C)CC2CC(C)(C)C3)c1 (stereo not shown) | -67.6%
38 | CC1CCN(CCC(=O)Nc2ccc(Cl)cc2)CC1.Cl | -56.9%
39 | CCCc1c(OCCCCc2nn[nH]n2)ccc(C(C)=O)c1O | 11.8%
40 | COc1cc(NC(=O)c2cccs2)c(OC)cc1NC(=O)c1cccs1 | 11.1%

Row | Structure (SMILES) | hERG current change (%, negative = inhibition) at 10uM
41 | COc1ccc(C(c2sc3nc(C)nn3c2O)N2CCC3(CC2)OCCO3)cc1 (stereo not shown) | -2.74%
42 | O=C(COc1ccc(C(=S)N2CCOCC2)cc1)N1CCCC1 | 4.23%
43 | O=C(O)C1C2C=CC(C2)C1C(=O)Nc1ccccc1Br (stereo not shown) | 12.5%
44 | CC(C)c1ccc(N(C(=O)CNC(=O)c2ccco2)C(C(=O)NC2CCCC2)c2ccncc2)cc1 (stereo not shown) | -6.92%
45 | CCNc1nc(SCC(=O)OC)nc(N2CCOCC2)n1 | -21.7%
46 | N#C/C(=N\Nc1ccc(S(=O)(=O)N2CCCCCC2)cc1)C(N)=S | 4.21%
47 | Cc1cccc(OC(=O)NCCOC(=O)N(O)c2ccc(Cl)cc2)c1 | -14.4%
48 | COc1ccc(/C(O)=C2/C(=O)C(=O)N(CCN(C)C)C2c2ccc(F)cc2)cc1Cl (stereo not shown) | 13.8%
49 | Cc1cc(Nc2cccc(F)c2)n2ncnc2n1 | -4.7%
50 | CSC(=S)N/N=C/c1c[nH]c2ccccc12 | 12.3%
51 | Cc1ccc(C(=O)c2cc([N+](=O)[O-])ccc2N2CCOCC2)c(C)c1 | -26.5%
52 | O=C(NCc1nc2ccccc2[nH]1)C1=C[C@@H](C2CC2)C[C@@H](OCc2ccc(CO)cc2)O1 | 9.06%
53 | O=C(CSc1ccc(-c2ccc(-n3cccn3)cc2)nn1)Nc1ccccc1F | 17%
54 | COc1cc(OC)c2cc(C(=O)N/N=C/c3cccc(OC)c3O)[nH]c2c1 | 5.14%
55 | O=C(N1CCN(c2ccc(F)cc2)CC1)C1(c2cccs2)CCOCC1 | -33%
56 | CC(OC(=O)C12CC3CC(CC(O)(C3)C1)C2)C(N)=O (stereo not shown) | 14.7%
57 | O=c1cnnc(N/N=C/c2ccccn2)[nH]1 | 31.1%
58 | Cc1ccc(C(OCC(C)(C)C[N+](C)(C)C)c2ccccc2)cc1.[I-] (stereo not shown) | -36.7%
